Patent publication US11773160 (ANAVEON, dated 2023)

T1: trimeric IL-2 receptor on HEK-Blue IL-2 reporter cells (UniProt P01589 22-272; P14784 27-551; P31785 23-369, limits assumed)
T1 sequence (looked up) 1: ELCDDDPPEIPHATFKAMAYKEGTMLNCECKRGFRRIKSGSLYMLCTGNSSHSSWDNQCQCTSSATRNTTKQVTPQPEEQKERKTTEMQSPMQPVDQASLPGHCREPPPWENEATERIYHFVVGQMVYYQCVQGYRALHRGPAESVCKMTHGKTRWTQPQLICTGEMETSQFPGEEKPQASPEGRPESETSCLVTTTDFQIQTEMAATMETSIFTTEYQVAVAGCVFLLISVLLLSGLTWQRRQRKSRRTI
T1 sequence (looked up) 2: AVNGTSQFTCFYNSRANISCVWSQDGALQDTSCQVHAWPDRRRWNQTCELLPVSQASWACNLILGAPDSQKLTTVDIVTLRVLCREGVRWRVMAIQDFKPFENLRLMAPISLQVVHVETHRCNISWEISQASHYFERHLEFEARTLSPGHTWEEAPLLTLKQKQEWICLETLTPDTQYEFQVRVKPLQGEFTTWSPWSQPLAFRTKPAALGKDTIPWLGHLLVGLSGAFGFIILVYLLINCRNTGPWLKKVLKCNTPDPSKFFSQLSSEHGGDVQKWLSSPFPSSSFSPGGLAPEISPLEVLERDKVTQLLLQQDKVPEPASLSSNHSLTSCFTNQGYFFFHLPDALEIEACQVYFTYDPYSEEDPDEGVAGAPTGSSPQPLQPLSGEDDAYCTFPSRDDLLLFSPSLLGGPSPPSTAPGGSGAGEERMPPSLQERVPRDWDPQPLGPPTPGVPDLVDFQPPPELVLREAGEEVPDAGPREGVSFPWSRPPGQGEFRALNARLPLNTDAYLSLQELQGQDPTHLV
T1 sequence (looked up) 3: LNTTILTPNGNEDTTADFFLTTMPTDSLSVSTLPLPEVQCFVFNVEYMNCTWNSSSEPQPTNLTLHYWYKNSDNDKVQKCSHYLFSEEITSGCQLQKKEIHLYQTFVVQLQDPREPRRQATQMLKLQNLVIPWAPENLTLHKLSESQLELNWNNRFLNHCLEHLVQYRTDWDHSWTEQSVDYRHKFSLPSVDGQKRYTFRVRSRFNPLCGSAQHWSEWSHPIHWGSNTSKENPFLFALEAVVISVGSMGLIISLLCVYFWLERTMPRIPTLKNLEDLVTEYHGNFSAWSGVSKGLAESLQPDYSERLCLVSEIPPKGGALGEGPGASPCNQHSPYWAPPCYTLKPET

T2: IL-2R on murine splenocytes (C57BL/6)
T2 sequence (P01590 whole entry, looked up): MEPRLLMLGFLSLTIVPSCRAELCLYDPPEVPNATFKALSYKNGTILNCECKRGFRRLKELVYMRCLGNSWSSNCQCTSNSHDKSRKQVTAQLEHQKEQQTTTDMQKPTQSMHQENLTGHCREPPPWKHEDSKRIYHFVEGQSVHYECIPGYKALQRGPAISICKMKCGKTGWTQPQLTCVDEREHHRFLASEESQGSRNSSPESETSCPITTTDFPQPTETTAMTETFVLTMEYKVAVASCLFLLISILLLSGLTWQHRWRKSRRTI
T2 sequence (P16297 whole entry, looked up): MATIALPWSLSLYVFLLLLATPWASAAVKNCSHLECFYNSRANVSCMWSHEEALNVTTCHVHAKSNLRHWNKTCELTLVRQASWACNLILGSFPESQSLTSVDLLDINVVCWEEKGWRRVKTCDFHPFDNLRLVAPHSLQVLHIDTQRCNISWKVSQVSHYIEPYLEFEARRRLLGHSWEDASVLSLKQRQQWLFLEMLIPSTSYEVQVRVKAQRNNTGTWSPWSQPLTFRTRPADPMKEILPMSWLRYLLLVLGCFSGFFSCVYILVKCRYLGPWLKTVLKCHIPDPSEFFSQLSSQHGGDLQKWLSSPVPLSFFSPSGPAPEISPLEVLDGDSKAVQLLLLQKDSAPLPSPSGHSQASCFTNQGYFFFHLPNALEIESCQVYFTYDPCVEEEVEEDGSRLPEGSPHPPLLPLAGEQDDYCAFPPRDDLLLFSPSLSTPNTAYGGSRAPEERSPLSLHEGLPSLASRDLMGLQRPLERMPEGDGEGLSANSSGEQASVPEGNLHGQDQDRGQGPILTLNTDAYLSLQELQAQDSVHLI
T2 sequence (P34902 whole entry, looked up): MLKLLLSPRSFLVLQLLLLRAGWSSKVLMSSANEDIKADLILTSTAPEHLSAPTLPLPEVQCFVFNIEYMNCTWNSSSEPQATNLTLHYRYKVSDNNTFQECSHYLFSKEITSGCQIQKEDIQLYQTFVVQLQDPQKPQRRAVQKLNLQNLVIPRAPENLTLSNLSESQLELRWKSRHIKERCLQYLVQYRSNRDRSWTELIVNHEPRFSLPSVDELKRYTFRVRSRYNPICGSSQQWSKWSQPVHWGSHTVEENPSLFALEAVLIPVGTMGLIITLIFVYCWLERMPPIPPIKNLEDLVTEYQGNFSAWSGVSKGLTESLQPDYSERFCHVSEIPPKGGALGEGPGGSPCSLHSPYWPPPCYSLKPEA

T3: His-tagged recombinant CD25 (human, UniProt P01589 22-213, limits assumed)
T3 construct: Captured via TrisNTA Biotin on SA chips; also called IL-2 receptor alpha; IL-2Rα; not shown: His tag
T3 sequence (looked up): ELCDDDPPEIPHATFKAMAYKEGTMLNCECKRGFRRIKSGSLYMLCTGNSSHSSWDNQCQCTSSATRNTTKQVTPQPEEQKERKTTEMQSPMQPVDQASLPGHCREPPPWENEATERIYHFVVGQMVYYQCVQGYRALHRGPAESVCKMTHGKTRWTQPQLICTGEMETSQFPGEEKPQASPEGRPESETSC


Assays:
[1] = molecular target: T1, trimeric IL-2 receptor on HEK-Blue IL-2 …; test: cell-based or functional assay
[2] = molecular target: T2, IL-2R on murine splenocytes (C57BL/6); test: cell-based or functional assay
[3] = molecular target: T4, monoclonal anti-human IL-2 antibody 5344 (BD, 555051); test: sandwich ELISA, 5344 coated, fusion protein titrated, anti-human IgG-Peroxidase
T4 construct: Coated capture antibody
Procedure: The antibody-IL-2 fusion proteins were tested on a sandwich ELISA, to assess the correct folding of the IL-2 portion. […] The obtained signals (Absorbance 450-570 nm) were plotted as function of antibody-IL-2 fusion protein concentration (as log value). The $EC50$ values were interpolated fitting the data with GraphPad Prism 8 (Table 6).

[4] = molecular target: T3, His-tagged recombinant CD25; test: SPR (BIAcore 3000), His-tagged CD25 captured, kinetic titration of fusion protein
Procedure: (§1) HEK-Blue™ IL-2 reporter cells (Invivogen) were incubated with a dilution series (1:3 dilutions from 0.56 nM) of antibody-IL-2 fusion protein in growth medium for 20 hours Example 4. IL-2 fusion protein in vitro selectivity Binding affinities to CD25 measured by SPR Binding affinities of the IL-2 fusion protein to the IL-2 receptor CD25 were measured by SPR (BIAcore 3000, GE Healthcare, 33-1140587-3682). His-tagged recombinant CD25 was captured via TrisNTA Biotin on SA chips and Kinetic titration of IL-2 fusion proteins of the present invention was performed reaching concentrations up to 500 nM.

[5] = molecular target: monoclonal anti-human IL-2 antibody Nara1; test: ELISA, Nara1 coated, fusion protein titrated, anti-human IgG-Peroxidase; lowest concentration with signal at or above the cut point
[6] = molecular target: T3, His-tagged recombinant CD25; test: SPR (BIAcore 3000), His-tagged CD25 captured via TrisNTA Biotin on SA chip, kinetic titration of fusion protein
Procedure: as §1

| Binder | EC50 (M), SEAP of HEK-Blue IL-2 reporter cells [1] [M] | EC50 CD8 cells (nM), pSTAT5 MFI [2] [nM] | EC50 NK cells (nM), pSTAT5 MFI [2] [nM] | EC50 Treg cells (nM), pSTAT5 MFI [2] [nM] | EC50 [3] [nM] | Lowest concentration (nM) OD450-570 ≥ CP [5] [nM] | Kd [6] [nM] | binding result [4] |
| --- | --- | --- | --- | --- | --- | --- | --- | --- |
| ECV200 (other, also called IL-2 fusion protein to antibody B, linker 1 6 AA, linker 2 7 AA) heavy: QVQLVESGGGVVQPGRSLRLSCAASGYTFSSYLIEWVRQAPGKGLEWVAVINPGSGGTNYADSVKGRFTISADKSKNTAYLQMNSLRAEDTAVYYCARWRGDGYYAYFDVWGQGTTVTVSSASTKGPSVFPLAPSSKSTSGGTAALGCLVKDYFPEPVTVSWNSGALTSGVHTFPAVLQSSGLYSLSSVVTVPSSSLGTQTYICNVNHKPSNTKVDKRV[omitted - human IgG1 Fc] light: EIVLTQSPATLSVSPGERATLSCRASQSVSYGGGGSGNFHLRPRDLISNINVIVLELKGSETTFMCEYADETATIVEFLNRWITFSQSIISTLTPTSSSTKKTQLQLEHLLLDLQMILNGINNYKNPKLTRMLTFKFYMPKKATELKHLQCLEEELKPLEEVLNLAQSKGGGGSGGDSYMNWYQQKPGQAPRLLIYAASNLASGIPARFSGSGSGTEFTLTISSLQSEDAAVYYCQQSNEDPYTFGGGTKVEIKRTVAAPSVFIFPPSDEQLKSGTASVVCLLNNFYPREAKVQWKVDNALQSGNSQESVTEQDSKDSTYSLSSTLTLSKADYEKHKVYACEVTHQGLSSPVTKSFNRGEC | 3.42e-12 | 6.9 | 0.9 | 3.7 | 0.13 | 0.28 | – | no binding (tested: concentrations up to 500 nM) |
| BFC885 (other, also called IL-2 fusion protein to antibody B, linker 1 13 AA, linker 2 14 AA) heavy: QVQLVESGGGVVQPGRSLRLSCAASGYTFSSYLIEWVRQAPGKGLEWVAVINPGSGGTNYADSVKGRFTISADKSKNTAYLQMNSLRAEDTAVYYCARWRGDGYYAYFDVWGQGTTVTVSSASTKGPSVFPLAPSSKSTSGGTAALGCLVKDYFPEPVTVSWNSGALTSGVHTFPAVLQSSGLYSLSSVVTVPSSSLGTQTYICNVNHKPSNTKVDKRV[omitted - human IgG1 Fc] light: EIVLTQSPATLSVSPGERATLSCRASQSVSYGGGGSGGGGSGGGNFHLRPRDLISNINVIVLELKGSETTFMCEYADETATIVEFLNRWITFSQSIISTLTPTSSSTKKTQLQLEHLLLDLQMILNGINNYKNPKLTRMLTFKFYMPKKATELKHLQCLEEELKPLEEVLNLAQSKGGGGSGGGGSGGGGDSYMNWYQQKPGQAPRLLIYAASNLASGIPARFSGSGSGTEFTLTISSLQSEDAAVYYCQQSNEDPYTFGGGTKVEIKRTVAAPSVFIFPPSDEQLKSGTASVVCLLNNFYPREAKVQWKVDNALQSGNSQESVTEQDSKDSTYSLSSTLTLSKADYEKHKVYACEVTHQGLSSPVTKSFNRGEC | 5.09e-12 | 26.4 | 2 | 0.9 | 0.25 | < 0.09 | 54.1 | – |

Continued, in another order:

| EC50 (M), SEAP of HEK-Blue IL-2 reporter cells [1] [M] | EC50 CD8 cells (nM), pSTAT5 MFI [2] [nM] | EC50 NK cells (nM), pSTAT5 MFI [2] [nM] | EC50 Treg cells (nM), pSTAT5 MFI [2] [nM] | EC50 [3] [nM] | Lowest concentration (nM) OD450-570 ≥ CP [5] [nM] | Kd [6] [nM] | Binder | binding result [4] |
| --- | --- | --- | --- | --- | --- | --- | --- | --- |
| 3.45e-12 | 6.8 | 0.9 | 6.6 | 0.11 | 0.83 | – | DRO069 (other, also called IL-2 fusion protein to antibody B, linker 1 3 AA, linker 2 4 AA) heavy: QVQLVESGGGVVQPGRSLRLSCAASGYTFSSYLIEWVRQAPGKGLEWVAVINPGSGGTNYADSVKGRFTISADKSKNTAYLQMNSLRAEDTAVYYCARWRGDGYYAYFDVWGQGTTVTVSSASTKGPSVFPLAPSSKSTSGGTAALGCLVKDYFPEPVTVSWNSGALTSGVHTFPAVLQSSGLYSLSSVVTVPSSSLGTQTYICNVNHKPSNTKVDKRV[omitted - human IgG1 Fc] light: EIVLTQSPATLSVSPGERATLSCRASQSVSYGGGNFHLRPRDLISNINVIVLELKGSETTFMCEYADETATIVEFLNRWITFSQSIISTLTPTSSSTKKTQLQLEHLLLDLQMILNGINNYKNPKLTRMLTFKFYMPKKATELKHLQCLEEELKPLEEVLNLAQSKGGGGDSYMNWYQQKPGQAPRLLIYAASNLASGIPARFSGSGSGTEFTLTISSLQSEDAAVYYCQQSNEDPYTFGGGTKVEIKRTVAAPSVFIFPPSDEQLKSGTASVVCLLNNFYPREAKVQWKVDNALQSGNSQESVTEQDSKDSTYSLSSTLTLSKADYEKHKVYACEVTHQGLSSPVTKSFNRGEC | no binding (tested: concentrations up to 500 nM) |
| 3.66e-12 | 16 | 1.9 | 16 | 0.15 | 7.5 | – | EPK959 (other, also called IL-2 fusion protein to antibody B, linker 1 0 AA, linker 2 1 AA) heavy: QVQLVESGGGVVQPGRSLRLSCAASGYTFSSYLIEWVRQAPGKGLEWVAVINPGSGGTNYADSVKGRFTISADKSKNTAYLQMNSLRAEDTAVYYCARWRGDGYYAYFDVWGQGTTVTVSSASTKGPSVFPLAPSSKSTSGGTAALGCLVKDYFPEPVTVSWNSGALTSGVHTFPAVLQSSGLYSLSSVVTVPSSSLGTQTYICNVNHKPSNTKVDKRV[omitted - human IgG1 Fc] light: EIVLTQSPATLSVSPGERATLSCRASQSVSYNFHLRPRDLISNINVIVLELKGSETTFMCEYADETATIVEFLNRWITFSQSIISTLTPTSSSTKKTQLQLEHLLLDLQMILNGINNYKNPKLTRMLTFKFYMPKKATELKHLQCLEEELKPLEEVLNLAQSKGDSYMNWYQQKPGQAPRLLIYAASNLASGIPARFSGSGSGTEFTLTISSLQSEDAAVYYCQQSNEDPYTFGGGTKVEIKRTVAAPSVFIFPPSDEQLKSGTASVVCLLNNFYPREAKVQWKVDNALQSGNSQESVTEQDSKDSTYSLSSTLTLSKADYEKHKVYACEVTHQGLSSPVTKSFNRGEC | no binding (tested: concentrations up to 500 nM) |
